Holding throughout (assay): Primary Screen for Target Class Profiling of Small Molecule Inhibitors of Methyltransferases
Assay [1] has as its target Glycine N-methyltransferase (Homo sapiens) (UniProt Q14749). Conditions: purified enzyme, MTase-Glo SAH luminescence; measured here: GNMT inhibition; at 40 µM; stronger effect = lower value. In short, it runs like this: (§1)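 Each enzyme was assayed with SAM and its substrate. SAH formation detected by MTase-Glo luminescence; single-point 40 uM screen[…].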
For assay [2], the target named is Guanidinoacetate N-methyltransferase (Homo sapiens) (UniProt Q14353). The following applies: purified enzyme, MTase-Glo SAH luminescence; measured here: GAMT inhibition; at 40 µM; stronger effect = lower value. In short, it runs like this:
as §1

Assay [3] deals with Histamine N-methyltransferase (Homo sapiens) (UniProt P50135). The following applies: purified enzyme, MTase-Glo SAH luminescence; measured here: HNMT inhibition; at 40 µM; stronger effect = lower value. In outline: as §1
Assay [4] deals with Nicotinamide N-methyltransferase (Homo sapiens) (UniProt P40261). Conditions: purified enzyme, MTase-Glo SAH luminescence; measured here: NNMT inhibition; at 40 µM; stronger effect = lower value. In short, it runs like this: as §1
In assay [5] the target is Phenylethanolamine N-methyltransferase (Homo sapiens) (UniProt P11086). Conditions: purified enzyme, MTase-Glo SAH luminescence; measured here: PNMT inhibition; at 40 µM; stronger effect = lower value. In short, it runs like this: as §1

The structures appear in SMILES notation. “And” between values parts separate entries of the source, which are not always exact repeats. Equal values may be shown once. The list shows a part of the results. Further columns of the screen follow, without active or inactive calls. Peptide text beside a SMILES is read from it. * marks the point of attachment. βNA = c1ccc2cc(N*)ccc2c1; Cbz = O=C(OCc1ccccc1)*
% is set by controls: 0 for no effect and ±100 for the full control effect.

Turning to `CCC(C(=O)N1CCCn2nc(C(=O)Nc3ccccc3)cc2C1)n1cccn1` (configuration not stated), the activity change, negative = inhibition in assay [1] is -6.96%; in assay [2], -5.04%; in assay [3], -3.69%; in assay [4], -6.13%; in assay [5] it was -10.6%.

Turning to `O=C(CSc1nnc2n(Cc3ccc(F)cc3)c(=O)c3ccccc3n12)Nc1cccc(Cl)c1`, the activity change, negative = inhibition in assay [1] is 6.33%; in assay [2] it was 2.44%; in assay [3], 9.9%; in assay [4] it was -2.47%; in assay [5] it was 5.5%.

Take `CC(C)CC(NC(=O)OCc1ccccc1)C(=O)NC(CC(C)C)C(=O)NC(CCC(=O)O)C(=O)Nc1ccc2ccccc2c1` (stereo not drawn) (Cbz-Leu-Leu-Glu-βNA; configuration not given here): the activity change, negative = inhibition was -1.1% in assay [1]; 12.6% in assay [2]; 11.6% in assay [3]; -9.17% in assay [4]; 7.91% in assay [5].

Regarding `COc1ccc(C(=O)CC(=O)O)c2c1C=CC(C)(C)O2`, the activity change, negative = inhibition in assay [1] is 5.88%; in assay [2], 6.85%; in assay [3], 11.2%; in assay [4], -4.65%; in assay [5], 5.78%.

Take `Cc1cnn(CCC(=O)N2CCCn3ccnc3C2c2cnn(C)c2)c1` (configuration not stated): the activity change, negative = inhibition is -0.595% in assay [1]; -1.8% in assay [2]; 2.42% in assay [3]; -4.53% in assay [4]; 3.38% in assay [5].

For `CC(C)N1CC(C(=O)NCCc2ccc(Cl)cc2)NC1=O` (configuration not stated), the activity change, negative = inhibition was -5.57% in assay [1]; -7.13% in assay [2]; -5.11% in assay [3]; -9.65% in assay [4]; -4.42% in assay [5].

On to `Cc1ccc(C2(COC(=O)C(C)C)CO2)c(OC(=O)C(C)C)c1` (configuration not stated), for which the activity change, negative = inhibition in assay [1] is 1.62%; in assay [2] it was -2.86%; in assay [3] it was 7.09%; in assay [4], -15%; in assay [5], -0.543%.

For `C/C=C1\[C@H](O[C@@H]2O[C@H](CO)[C@@H](O)[C@H](O)[C@H]2O)OC=C2C(=O)OCCc3ccc(O)c(c3)Oc3ccc(cc3)CCOC(=O)C[C@H]21`, the activity change, negative = inhibition is -5.21% in assay [1]; -9.68% in assay [2]; 0.833% in assay [3]; -19% in assay [4]; -10.8% in assay [5].

Consider `CC(C)NCC(O)COc1cccc2ccccc12` (configuration not stated), for which the activity change, negative = inhibition in assay [1] was 3.67%; in assay [2], 12.6%; in assay [3], -5.69%; in assay [4] it was -6.71%; in assay [5], 3.7%.

With `CC1(C(=O)NCc2ccccc2)Cn2c(cc3ccccc32)C(=O)N1Cc1ccco1` (configuration not stated), the activity change, negative = inhibition in assay [1] is 0.826%; in assay [2], -1.83%; in assay [3], 2.98%; in assay [4], -4.52%; in assay [5] it was -3.85%.

On to `O=C(CCSCc1ccccc1)N1C[C@@H](CN2CCOCC2)[C@@H](CO)C1`, for which the activity change, negative = inhibition is -0.853% in assay [1]; -1.3% in assay [2]; 1.45% in assay [3]; -2.8% in assay [4]; 0.84% in assay [5].

As to `COc1ccc(-c2cc3n(n2)CC(C)(C(=O)NCc2ccccc2OC)N(c2cc(Cl)ccc2C)C3=O)cc1` (configuration not stated), the activity change, negative = inhibition in assay [1] is 8.25%; in assay [2] it was 3.59%; in assay [3], 9.21%; in assay [4] it was 7.34%; in assay [5], 2.15%.

Consider `CCN1C(=O)c2c(C(=O)NCc3cc(OC)ccc3OC)ncn2CC1(C)C(=O)NC1CCCC1` (configuration not stated), for which the activity change, negative = inhibition was determined as 3.63% in assay [1]; 0% in assay [2]; 9.84% in assay [3]; 2.3% in assay [4]; 10.3% in assay [5].

With `CN(Cc1cccn1C)C(=O)c1ccccc1`, the activity change, negative = inhibition in assay [1] was -7.34%; in assay [2] it was -6.19%; in assay [3], -3.39%; in assay [4], -15.1%; in assay [5] it was -25.2%.

Consider `COc1ccc(N2CCN(C(CNS(=O)(=O)c3ccccc3)c3ccco3)CC2)cc1` (configuration not stated), for which the activity change, negative = inhibition in assay [1] was -2.47%; in assay [2] it was 2.86%; in assay [3], -6.88%; in assay [4] it was -10.8%; in assay [5] it was -5.22%.

As to `CCCN1C(=O)c2ccc(-c3ccccc3)n2CC1(C)C(=O)NC1CCCCC1` (configuration not stated), the activity change, negative = inhibition in assay [1] came to 4.53%; in assay [2] it was 0%; in assay [3], 4.38%; in assay [4] it was 7.7%; in assay [5], 4.72%.

Turning to `CN(C)C[C@@H]1CN(c2ncccn2)C[C@H]1NC(=O)COc1ccc(Cl)cc1`, the activity change, negative = inhibition in assay [1] is -1.36%; in assay [2], -3.43%; in assay [3], -1.45%; in assay [4], -9.05%; in assay [5], -2.23%.

In the case of `O=C(Nc1ccn(Cc2ccc(O)cc2C(F)(F)F)n1)c1c(F)cccc1F`, the activity change, negative = inhibition in assay [1] is -2.93%; in assay [2], 2.67%; in assay [3], 10%; in assay [4], -12.4%; in assay [5], 3.29%.

Regarding `CC1CCC(NC(=O)C2(C)Cn3c(cc4occc43)C(=O)N2c2ccc(Cl)cc2)CC1` (configuration not stated), the activity change, negative = inhibition in assay [1] is -7.39%; in assay [2] it was 0.723%; in assay [3], 1.38%; in assay [4], -16.5%; in assay [5], -4.83%.

Turning to `CC1(C(=O)NCC2CCCO2)Cn2c(cc3ccccc32)C(=O)N1C1CCCc2ccccc21` (configuration not stated), the activity change, negative = inhibition came out at 6.2% in assay [1]; 3.76% in assay [2]; 8.33% in assay [3]; 9.34% in assay [4]; 0.238% in assay [5].

In the case of `CCCOc1ccc(CNC(=O)c2ncn3c2C(=O)N(CCC)C(C)(C(=O)NCCC(C)C)C3)cc1` (configuration not stated), the activity change, negative = inhibition in assay [1] is -0.817%; in assay [2] it was 0%; in assay [3], 5.1%; in assay [4] it was 3.49%; in assay [5], 8.39%.

In the case of `O=C(Cn1cccn1)N1CC[C@@H]2[C@@H](CCC(=O)N2CCc2cnc[nH]2)C1`, the activity change, negative = inhibition is -2.64% in assay [1]; -0.104% in assay [2]; 0.555% in assay [3]; -1.24% in assay [4]; -4.61% in assay [5].

With `Cc1nnc(-c2sc(NC(=O)[C@H](C(C)C)n3c(=O)[nH]c4ccccc4c3=O)nc2C)o1`, the activity change, negative = inhibition is 3.01% in assay [1]; 0.273% in assay [2]; 10.7% in assay [3]; -20.7% in assay [4]; -0.658% in assay [5].

For `C[C@@H](Cc1cc2c(c(C(N)=O)c1)N(CCCO)CC2)NCCOc1ccccc1OCC(F)(F)F`, the activity change, negative = inhibition in assay [1] was -1.96%; in assay [2], -5.23%; in assay [3] it was -1.75%; in assay [4], -17.2%; in assay [5], -7.19%.

`COc1cccc(NC(=O)O[C@@H]2CO[C@H]3[C@@H]2OC[C@@H]3Nc2nccc(-c3ccccc3)n2)c1`: the activity change, negative = inhibition in assay [1] is 0.536%; in assay [2] it was -0.609%; in assay [3], 1.63%; in assay [4], 6.75%; in assay [5] it was 4.79%.

In the case of `CCn1cnnc1CC1CCN(S(=O)(=O)c2ccc(OC)cc2)CC1`, the activity change, negative = inhibition in assay [1] was 3%; in assay [2] it was 0%; in assay [3], 3.93%; in assay [4], -1.87%; in assay [5], 3.68%.

Consider `COC(=O)[C@@H]1[C@H]2C[C@H]3c4[nH]c5ccccc5c4CCN3C[C@@H]2CC[C@@H]1O`, for which the activity change, negative = inhibition in assay [1] is 1.63% and 4.81%; in assay [2], 4.06% [middle of 4 runs]; in assay [3], 10.6% and 8.41%; in assay [4] it was -6.56% [middle of 4 runs]; in assay [5] it was 4.77% [middle of 4 runs].

Regarding `CCCSc1nc(NC2CC2c2ccc(F)c(F)c2)c2nnn(C3CC(OCCO)C(O)C3O)c2n1` (configuration not stated), the activity change, negative = inhibition in assay [1] is -22.8%; in assay [3], -27.8%.

On to `CCOc1ccc(CN2C(=O)c3cc4sccc4n3CC2(C)C(=O)NC2CCCCC2C)cc1` (configuration not stated), for which the activity change, negative = inhibition in assay [1] is 4.14%; in assay [2], 8.54%; in assay [3], 2.08%; in assay [4], 2.72%; in assay [5] it was -1.68%.
